Assay results published in PubChem BioAssay (NCI).
Several values for one entry are separate records, joined by “and”; a condition that tells them apart may be missing. Equal values may be shown once.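 Cells were grown in 96-well plates and exposed to each compound for 48 hours at five concentrations; endpoints were interpolated linearly between bracketing concentrations, or set to the highest concentration if not reached. The concentration for 50% growth inhibition is given as GI50. The concentration for full growth arrest is given as TGI.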 Numbered stars: 1 amine (or outer) side, 2 acyl side, 3 side chain; on linkers, the order of the positions; unused ones are H or OH. Square brackets hold non-standard residues; d marks the D form. Peptide text beside a SMILES is read from it. * marks the point of attachment. X10 = NCCCCC(N[*:1])C(=O)CN1CCCC1C(=O)[*:2]; Pentadecanoyl = CCCCCCCCCCCCCCC(=O)*

Test system: NCI-H322M lung
Test: inhibition of tumour cell growth, NCI panel, 48 h

`O=C(O)CNCc1c2ccccc2nc2ccccc12` and `O=C(O)CSc1nnc(COc2ccccc2)n1-c1ccccc1` cannot be ordered by TGI: greater than 100 µM for the first, greater than 100 µM for the second.

First: CCN(CC)CCn1nc2c3c(cccc3c1=O)-c1ccccc1-2
Second: CCOc1c(Cc2ccccc2)c(=O)n2c3ccccc3n3c(=O)n(C)c(=O)c1c23
The TGI of the first is lower: 24.1 µM for the first, greater than 100 µM for the second.

Going from `O=C(N/N=C\c1cc(Br)cc(Br)c1O)N/N=C/c1cc(Br)cc(Br)c1O` to `NS(=O)(=O)c1ccc(N=Nc2cc3ccccc3c(C(=O)O)c2O)cc1`, the TGI rises from 19.2 µM to greater than 100 µM.

`C/C(=C\c1ccccc1)n1c(=O)cc(C)n1C` and `CC1(C)CC(=O)C=C(NC(=O)c2ccccc2)C1` cannot be ordered by TGI: greater than 100 µM for the first, greater than 100 µM for the second.

`c1ccc(C2C3=C(CCCC3)Nc3nnnn32)cc1` (stereo not given) and `S=C1NC2=C(CCOc3c2ccc2ccccc32)C(c2ccc(Cl)cc2)N1` (stereo not given) cannot be ordered by TGI: greater than 100 µM for the first, greater than 100 µM for the second.

`CN1C(=O)[C@](C)(Cc2ccc(F)cc2)N(C(=O)OC(C)(C)C)[C@@H]1C(C)(C)C` and `CCN(CC)c1ccc(/C=C2/NC(=O)NC2=O)cc1` cannot be ordered by TGI: greater than 100 µM for the first, greater than 100 µM for the second.

`CO/C=C(/C(=O)OC)c1ccccc1[C@H]1C[C@@H]1c1ccccc1` and `COC(=O)C([O][Ge]([CH3])([CH3])[CH3])c1ccccc1` (stereo not given) cannot be ordered by TGI: greater than 100 µM for the first, greater than 100 µM for the second.

First: Nc1nc(Cl)cc(NCC2CC(O)(CO)C2)n1 (stereo not given)
Second: Clc1ccc2c(NCCNc3nc(Cl)nc4ccccc34)ccnc2c1
The TGI of the first is higher: greater than 100 µM for the first, 2.32 µM for the second.

`Cc1nc2cccc(F)c2c(=O)n1-c1nnc(C2CC2)s1` and `O=c1cc(-c2ccccc2)[nH]c2c(F)ccc(F)c12` cannot be ordered by TGI: greater than 10 µM for the first, greater than 100 µM for the second.

Going from `CC(C)(CO)Nc1c(O)c2c(c(O)c1Cl)C(=O)C=CC2=O` to `O=C1/C(=C/c2ccc(Cl)cc2)COc2ccc(Br)cc21`, the TGI rises from 2.61 µM to greater than 100 µM.

Compared with `CCCCCCCCCCCCCCC(=O)NC(CCCCN)C(=O)CN1CCCC1C(=O)NCC(=O)NC(Cc1ccccc1)C(=O)N1CCCC1C(=O)NC(CO)C(=O)NC(Cc1ccc(O)cc1)C(=O)NC(CCCCN)C(=O)NC(CC(C)C)C(=O)NC(CCCN=C(N)N)C(=O)N1CCCC1C(=O)NCC(N)=O` (stereo not given) (Pentadecanoyl-[X10]GFPSYKLRPG-NH2; configuration not given here), `Cc1cc(N)c2cc(NC(=O)CCCCCCCCC(=O)Nc3ccc4nc(C)cc(N)c4c3)ccc2n1` is higher in TGI: 41.8 µM for the first, greater than 100 µM for the second.

Compared with `Nc1ccc(Sc2ccc3c4c2cccc4c(=O)n2c4ccccc4nc32)cc1`, `Cc1cccc2c1C(=O)OC2(c1cccc2ccccc12)c1cccc2ccccc12` is higher in TGI: 35.1 µM for the first, greater than 100 µM for the second.

`Nc1nn2cc(-c3ccccc3)[n+](CC(=O)c3ccccc3)c2s1` and `[O-][n+]1cc(SCc2ccccc2)ncc1SCc1ccccc1` cannot be ordered by TGI: greater than 100 µM for the first, greater than 10 µM for the second.

Going from `COc1cc2cc(Oc3ccc(NC(=O)Nc4cc(C(F)(F)F)cc(C(F)(F)F)c4)cc3)c(C)nc2cc1OCCN1CCCCC1` to `CN1CCN(Cc2ccc(NC(=O)c3cncc(C#Cc4cncc5[nH]ncc45)c3)cc2C(F)(F)F)CC1`, the TGI rises from 3.08 µM to 5.78 µM (1.9-fold).

First: O=C(c1cccs1)N(C(=O)N1CCCCC1)c1ccccc1
Second: CCN1CCN(c2nc(NNC(=O)c3cccc(OC)c3)nc(N3CCN(C(c4ccccc4)c4ccccc4)CC3)n2)CC1
The TGI of the first is higher: greater than 100 µM for the first, 6.8 µM for the second.

`CCN(CC)CCC1(C(=O)OC)SCCc2ccc(C)cc21` (stereo not given) and `Cc1cccc(Cc2cnc(NC(=O)/C=C/c3ccco3)s2)c1` cannot be ordered by TGI: greater than 100 µM for the first, greater than 100 µM for the second.

`COc1ccc2nc(NC(=O)C(=O)C(C#N)c3ccc(CC#N)cc3)sc2c1` (stereo not given) and `O=C(Nc1ccc(Oc2cccc(Cl)c2)c(Cl)c1)c1cccnc1` cannot be ordered by TGI: greater than 100 µM for the first, greater than 50 µM for the second.

Going from `N#CSc1cc(-c2nc3ccccc3o2)ccc1N` to `N#Cc1nc(-c2ccccn2)c(-c2ccccn2)nc1C#N`, the TGI falls from 81.9 µM to 7.18 µM (11-fold).

Compared with `COc1ccc(C(OCC2OC(n3ccc(Oc4c(F)c(F)c(F)c(F)c4F)nc3=O)CC2OP(OCCC#N)N(C(C)C)C(C)C)(c2ccccc2)c2ccc(OC)cc2)cc1` (stereo not given), `O=C(c1nc2ccccc2[nH]1)C1C(c2cccc([N+](=O)[O-])c2)C2CC3CCCCC3N2[C@@]12C(=O)Nc1cc(Cl)ccc12` (stereo not given in full) is lower in TGI: greater than 100 µM for the first, 6.98 µM for the second.

`O=C1CSC2=NC3=C(COC/C3=C\c3ccc(F)cc3)C(c3ccc(F)cc3)N12` (stereo not given) and `Clc1ccc(C2=NNC(c3cccc(Cl)c3)C2)cc1` (stereo not given) cannot be ordered by TGI: greater than 100 µM for the first, greater than 100 µM for the second.

`NC(=S)c1cn(C2OC(CO)C(O)C2O)c2ncnc(N)c12` (stereo not given) and `C=C1C(=O)O[C@H]2[C@H]1CC/C(COC(=O)c1ccc(Br)cc1)=C\CC[C@@]1(C)O[C@@H]21` are within 1.5-fold of each other in TGI: 5.82 µM for the first, 7.43 µM for the second.

With `CN(C)CC1CCCCCCCCCCC1=O` (stereo not given) the TGI was greater than 100 µM.

Going from `CCN(CC)CCn1nc2c3c(cccc3c1=O)-c1ccccc1-2` to `CCN(CC)c1ccc(/C=C2/NC(=O)NC2=O)cc1`, the GI50 rises from 3.43 µM to 35.8 µM (10-fold).

`O=C(N/N=C\c1cc(Br)cc(Br)c1O)N/N=C/c1cc(Br)cc(Br)c1O` and `O=C(Nc1ccc(Oc2cccc(Cl)c2)c(Cl)c1)c1cccnc1` are within 1.5-fold of each other in GI50: 3.87 µM for the first, 2.97 µM for the second.

Going from `CCCCCCCC(=O)O[C@H]1[C@H]2[C@@H](CC1(C)C)C(=O)[C@]13O[C@H]1C(=O)[C@]1(CO1)[C@]23C` to `C=C1C(=O)O[C@H]2[C@H]1CC/C(COC(=O)c1ccc(Br)cc1)=C\CC[C@@]1(C)O[C@@H]21`, the GI50 falls from 23.3 µM to 2.46 µM (9.5-fold).

Going from `CCCCCCCCCCCCCCC(=O)NC(CCCCN)C(=O)CN1CCCC1C(=O)NCC(=O)NC(Cc1ccccc1)C(=O)N1CCCC1C(=O)NC(CO)C(=O)NC(Cc1ccc(O)cc1)C(=O)NC(CCCCN)C(=O)NC(CC(C)C)C(=O)NC(CCCN=C(N)N)C(=O)N1CCCC1C(=O)NCC(N)=O` (stereo not given) (Pentadecanoyl-[X10]GFPSYKLRPG-NH2; configuration not given here) to `CCN1CCN(c2nc(NNC(=O)c3cccc(OC)c3)nc(N3CCN(C(c4ccccc4)c4ccccc4)CC3)n2)CC1`, the GI50 falls from 17.2 µM to 2.59 µM (6.6-fold).

Compared with `COC(=O)C([O][Ge]([CH3])([CH3])[CH3])c1ccccc1` (stereo not given), `COc1cc2cc(C(=O)N3C[C@H](CCl)c4c3cc(O)c3ccccc43)[nH]c2c(OC)c1OC` is lower in GI50: greater than 100 µM for the first, 0.0698 µM for the second.

Compared with `Nc1ccc(Sc2ccc3c4c2cccc4c(=O)n2c4ccccc4nc32)cc1`, `Clc1ccc2c(NCCNc3nc(Cl)nc4ccccc34)ccnc2c1` is 7.3-fold lower in GI50: 7.77 µM for the first, 1.06 µM for the second.

First: COc1cc2cc(Oc3ccc(NC(=O)Nc4cc(C(F)(F)F)cc(C(F)(F)F)c4)cc3)c(C)nc2cc1OCCN1CCCCC1
Second: CN1CCN(Cc2ccc(NC(=O)c3cncc(C#Cc4cncc5[nH]ncc45)c3)cc2C(F)(F)F)CC1
The GI50 of the first is 1.7-fold higher: 1.67 µM for the first, 0.987 µM for the second.

First: S=C1NC2=C(CCOc3c2ccc2ccccc32)C(c2ccc(Cl)cc2)N1 (stereo not given)
Second: O=C(c1nc2ccccc2[nH]1)C1C(c2cccc([N+](=O)[O-])c2)C2CC3CCCCC3N2[C@@]12C(=O)Nc1cc(Cl)ccc12 (stereo not given in full)
The GI50 of the first is 16-fold higher: 37.8 µM for the first, 2.4 µM for the second.

Going from `N#CSc1cc(-c2nc3ccccc3o2)ccc1N` to `Cc1cccc(Cc2cnc(NC(=O)/C=C/c3ccco3)s2)c1`, the GI50 falls from 23 µM to 0.0651 µM (350-fold).

`NC(=S)c1cn(C2OC(CO)C(O)C2O)c2ncnc(N)c12` (stereo not given) was tested, and the GI50 was 0.209 µM.

For `CCCCCCCC(=O)O[C@H]1[C@H]2[C@@H](CC1(C)C)C(=O)[C@]13O[C@H]1C(=O)[C@]1(CO1)[C@]23C`, the TGI was 55.5 µM and 36.3 µM.
With `COc1cc2cc(C(=O)N3C[C@H](CCl)c4c3cc(O)c3ccccc43)[nH]c2c(OC)c1OC` the TGI was 0.821 µM and 3.53 µM.

In the case of `CN(C)CC1CCCCCCCCCCC1=O` (stereo not given), the GI50 is reported as > 10 µM and 59 µM.
